The whole screen tested about 48,000 compounds, of which about 450 (0.94%) were called active. Inconclusive results (about 19%) are left out. Calls follow the shape of the dose curve; as a rule, active = well fitted inhibition curve with a large enough effect; inconclusive = small, poorly fitted or top-dose-only effect; inactive = no such curve, though single readings can be large or run the other way. The list shows a part of the results.
experiment: Primary qHTS for Identification of Small Molecule Inhibitors of Huntingtin Promoter Activity; settings: HEK293 HTT promoter firefly luciferase reporter (activity 0% = vehicle and -100% = no light), 24 h; series mostly up to 57.5 µM; activity change, negative = inhibition: at the top concentration; also: nearly all actives have a fitted effect of over 50% in size
How it was run: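 Firefly luciferase signal from promoter-reporter HEK293 cells was scaled between vehicle (0%) and zero RLU (-100%). Compounds were tested at final concentrations of up to 57.5 uM over 24 h at 37 degrees C. PTC124 at 50 uM final served as control inhibitor.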

| SMILES | activity change, negative = inhibition |
| --- | --- |
| Cc1ccc(Cl)cc1N1CCN(C(=O)Cn2nc(C)c3sc4ccccc4c3c2=O)CC1 | inactive: -12.9% |
| CCC(C)NC(=O)CCSc1nc(-c2ccc3c(c2)OCO3)cc(C(F)(F)F)n1 (stereo unspecified) | inactive: -34.7% |
| C[C@]12C=CC(=O)C=C1[C@@H](F)C[C@@H]1[C@@H]2[C@@H](O)C[C@@]2(C)[C@H]1CC[C@]2(O)C(=O)CO | inactive: 3.31% |
| COc1ccc(C2CC(=O)c3cc(-c4nc(-c5cccc([N+](=O)[O-])c5)cs4)c(=O)n(-c4cccc(C)c4)c3C2)cc1 (stereo unspecified) | inactive: -5.03% |
| Cc1ccc(NC(=O)CSc2nc3ccc(NC(=O)c4ccco4)cc3s2)cc1 | inactive: -22.9% |
| Cc1ccc(NC(=O)CSc2nc(=O)n(Cc3ccccn3)c3c2CCC3)cc1F | inactive: -6.19% |
| COC(=O)c1c(NC(=O)Cc2coc3cc(C)cc(C)c23)sc2c1CCC2 | inactive: -16.9% |
| COCCNC(=O)c1c(NC(=O)c2cc(=O)c3cc(C)cc(C)c3o2)sc2c1CCCC2 | inactive: -9.61% |
| COc1cccc(Cn2c(C)c(CNCc3cccc(C)c3)c(C(=O)O)c2C)c1 | inactive: 3.61% |
| O=C(CSc1nc2ccccc2nc1Cc1ccccc1)N1CCc2ccccc21 | inactive: 0.468% |
| Cc1cccc(-c2nc3c4ccccc4nc(N4CCN(c5cccc(Cl)c5)CC4)n3n2)c1 | inactive: 4.98% |
| COc1ccc(-c2c3c(nc4sc(C(=O)Nc5cccc(OC)c5)c(N)c24)CC(C)(C)CC3=O)cc1 | inactive: -4.53% |
| CCc1ccccc1NC(=O)Cn1c(=O)n(CCc2ccccc2)c(=O)c2sc3ccccc3c21 | inactive: -3.25% |
| NC(=O)NC(=O)Cc1ccccc1 | inactive: 7.33% |
| COc1ccc(CCNC(=O)c2ccc(Cn3c(=O)c4cccn4c4cccnc43)cc2)cc1OC | inactive: -7.6% |
| Cc1cc(C)n2nc(CNS(=O)(=O)c3cccc(Cl)c3)nc2n1 | inactive: 0.652% |
| CCC(C)NC(=O)c1ccc(CNS(=O)(=O)c2ccc3c(c2)C(C)(C)C(=O)N3C)cc1 (stereo unspecified) | inactive: 0.483% |
| Cc1cc(C)c2oc(-c3cccc(NC(=O)c4cccc(F)c4)c3C)nc2c1 | inactive: 1.37% |
| Cc1ccc(Cl)cc1NC(=O)CN1C=NS(=O)(=O)c2ccccc21 | inactive: -10.1% |
| Cc1cccc(Cn2c(=O)n(-c3cc(C)cc(C)c3)c(=O)c3oc4ccccc4c32)c1 | inactive: -11.3% |
| CCc1nn(CCCC(=O)NCc2ccccc2OC)c(=O)c2cc3occc3n12 | inactive: -15.7% |
| Cc1cc(C)c2c(n1)nn1c(C)c(CCC(=O)Nc3cccc(C)c3C)c(C)nc21 | inactive: 12.9% |
| Cc1ccc(Cl)cc1N1CCN(C(=O)C2CCN(S(=O)(=O)c3cn(C)cn3)CC2)CC1 | inactive: -19.1% |

| SMILES | activity change, negative = inhibition |
| --- | --- |
| Cc1cccc(N2CCN(CCCNC(=O)Cn3ncc4c([nH]c5ccccc54)c3=O)CC2C)c1 (stereo unspecified) | inactive: -0.161% |
| COc1ccc(N(C)C(=O)Cn2cnc3sc(C)c(S(=O)(=O)N4CCN(c5ncccn5)CC4)c3c2=O)cc1 | inactive: -12.7% |
| Cc1ccc(-c2nc3cccc(C)n3c2Nc2ccc3c(c2)OCCO3)cc1 | inactive: 39% |
| CCOCCCn1c(=N)c(C(=O)NC2CCCCC2)cc2c(=O)n3ccccc3nc21 | inactive: 15.4% |
| CCc1nn(CC(=O)NCc2ccccc2)c(=O)c2cccn12 | inactive: -4.84% |
| COc1cccc(-c2cn3c(n2)sc2cc(C(=O)NC4CCCCC4)ccc23)c1 | inactive: -28.6% |
| CCc1ccccc1Nc1nn2c(=O)c3ccc(C(=O)NC(C)C)cc3nc2s1 | inactive: -3.42% |
| COc1cc(NC(=O)C2CCN(c3cnccn3)CC2)cc(OC)c1 | inactive: -11.7% |
| O=C(Cn1c(=O)n(Cc2ccco2)c(=O)c2oc3ccccc3c21)Nc1ccccc1 | inactive: -6.61% |
| COc1ccccc1N1CCN(C(=O)C2CCN(S(=O)(=O)c3cn(C)cn3)CC2)CC1 | inactive: -10.4% |
| COc1ccc(-c2cc(=O)c3c(O)cc(O[C@@H]4O[C@H](CO[C@@H]5O[C@@H](C)[C@H](O)[C@@H](O)[C@H]5O)[C@@H](O)[C@H](O)[C@H]4O)cc3o2)cc1O | inactive: 3.77% |
| CCOCCCNC(=O)c1ccc2c(=O)n(CCc3ccccc3)c(=O)[nH]c2c1 | inactive: 9.19% |
| CCc1ccc2oc(-c3cc(NC(=O)c4cc(OC)c(OC)c(OC)c4)ccc3O)nc2c1 | inactive: 9.56% |
| COc1cc(Nc2ncc(F)c(Nc3ccc4c(n3)N(COP(=O)(O)O)C(=O)C(C)(C)O4)n2)cc(OC)c1OC | inactive: -2.75% |
| COc1cccc(NC(=O)C2CCC(CNS(=O)(=O)c3csc(C(N)=O)c3)CC2)c1 (stereo unspecified) | inactive: -7.29% |
| CC(=O)c1ccc(NC(=O)CSc2nc(=O)n(Cc3ccccn3)c3c2CCC3)cc1 | inactive: 0% |
| Cc1ccc(NS(=O)(=O)c2ccc3oc(=O)c4ncn(C)c4c3c2)cc1C | inactive: -12.9% |
| O=C(CCC1N=C2c3ccccc3N=C(SCc3ccc(Cl)cc3)N2C1=O)NCc1cccs1 (stereo unspecified) | inactive: -10.5% |
| COc1ccc(OCC(O)Cn2c(=N)n(CCN3CCCCC3)c3ccccc32)cc1 (stereo unspecified) | inactive: -15.9% |
| COc1ccccc1C(=O)n1nc(-c2ccccc2)nc1NCc1ccc(Cl)cc1 | inactive: 3.89% |
| O=C(CCc1ccccc1)NC1CC(=O)N(c2cccc(F)c2)C1 (stereo unspecified) | inactive: 4.55% |
| CCC(=O)N1CCc2cc(S(=O)(=O)NC(CC(C)C)C(=O)Nc3cccc(C)c3C)ccc21 (stereo unspecified) | inactive: -16.8% |
| CN(C)c1ccc(CNC(=O)CN2C(=O)C3CCCCN3c3ccc(C(=O)N4CCCC4)cc32)cc1 (stereo unspecified) | inactive: -13.6% |
